Values joined by “and” are separate entries in the source; they are usually repeats but may differ in a detail not shown here. Equal entries are not always repeated. About 6,400 (1.6%) of roughly 410,000 compounds were called active. Inconclusive results, whose numbers are uncertain, are shown with a selection of clear calls. Calls follow the shape of the dose curve; as a rule, active = well fitted inhibition curve with a large enough effect; inconclusive = small, poorly fitted or top-dose-only effect; inactive = no such curve, though single readings can be large or run the other way. Where the call is inconclusive, the potency comes from a doubtful curve fit.
biological target: Glucagon-like peptide 1 receptor (Homo sapiens) (UniProt P43220); assay: qHTS of GLP-1 Receptor Inverse Agonists (Inhibition Mode); details: HEK293 GLP-1R CRE-luciferase, luminescence, 24 h, GLP-1R form is constitutively active; series mostly up to 38.3 µM; also: nearly all actives have a fitted effect of over 55% in size
How it was run: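 Stable HEK293 clone (constitutively active GLP-1R + cAMP-response luciferase); 200 cells/uL plated, 12 h pre-culture, compound 24 hr, 37 deg C/5% CO2; detection reagent 12 min RT; luminescence.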
Potency is read from the fitted curve at half-maximal effect; tags tell the direction and shape of the fitted curve.

Sequence of UniProt P43220 (P43220 whole entry, looked up): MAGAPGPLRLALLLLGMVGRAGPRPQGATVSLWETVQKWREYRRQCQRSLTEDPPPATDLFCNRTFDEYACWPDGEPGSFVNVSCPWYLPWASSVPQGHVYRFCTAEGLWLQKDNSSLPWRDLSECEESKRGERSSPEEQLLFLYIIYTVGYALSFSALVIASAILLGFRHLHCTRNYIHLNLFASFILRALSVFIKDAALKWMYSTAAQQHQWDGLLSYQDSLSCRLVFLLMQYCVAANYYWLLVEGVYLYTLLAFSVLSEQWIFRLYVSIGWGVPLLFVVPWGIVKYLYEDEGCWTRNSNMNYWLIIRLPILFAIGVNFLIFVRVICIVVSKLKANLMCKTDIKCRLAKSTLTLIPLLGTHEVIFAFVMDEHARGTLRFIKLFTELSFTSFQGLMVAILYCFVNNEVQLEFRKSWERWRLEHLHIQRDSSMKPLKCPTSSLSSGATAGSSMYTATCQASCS

Potency, active:
Cc1ccc(Cl)cc1N1CCN(S(=O)(=O)c2ccc3c(c2)OCCO3)CC1 10 µM

Potency, inactive:
Cc1csc(NC(=O)c2ccc(C)s2)n1
Nn1c(SCc2cccc(F)c2)nnc1-c1cccnc1
COC(=O)c1ccccc1NC(=O)C(CCS(C)(=O)=O)NC(C)=O (configuration not stated)
COc1cccc(CNC(=O)CCC2CCCN(C(=O)CCC(F)(F)F)C2)c1 (configuration not stated)
Cc1cc(C)c2c(n1)sc1c(=O)n(-c3cc(Cl)ccc3C)nnc12
O=C(/C=C\c1ccccc1)NC1CC(=O)N(c2ccccc2)C1 (configuration not stated)
CCCn1c(CCCNC(=O)c2ccccc2OC)nc2ccccc21
CCOC(=O)C(=CNc1cc(C)ccc1C)C(=O)OCC
Cc1cc(C(F)(F)F)c(C#N)c(SCC(=O)NC(C)(C)C)n1

Potency, inconclusive:
CCCn1c(C(O)c2ccc(C)cc2)nc2ccccc21 (configuration not stated) 5.01 µM [inhibitor, partial curve]
COc1ccccc1CN1CCC(CNC(=O)c2cnn(-c3ccc(Cl)cc3)c2C2CCN(C(=O)OC(C)(C)C)CC2)CC1 20 µM [inhibitor, single point]
O=C(CCl)N(c1ccccc1)C1CCCCC1 14.1 µM [inhibitor, single point]
CN(CC(=O)Nc1ccc(Cl)c(Cl)c1)C(=O)C1CCCC1 22.4 µM [inhibitor, partial curve, poor fit]
O=C(NCCCc1nc2ccccc2n1Cc1ccc(Cl)cc1Cl)c1ccco1 10 µM [inhibitor, partial curve, poor fit]
CN(C/C=C/c1ccccc1)Cc1cccc2ccccc12 10 µM [inhibitor, partial curve]
CCOC(=O)C1CCN(C(=O)Nc2ccc(OC(F)(F)F)cc2)CC1 10 µM [inhibitor, partial curve, poor fit]
COc1cccc(CC2(CO)CCCN(Cc3cn(C)c4ccccc34)C2)c1 (configuration not stated) 10 µM [inhibitor, partial curve, poor fit]
O=C(CSc1nnc(CNC(=O)c2c(F)cccc2Cl)o1)NCc1ccc(F)cc1 28.2 µM [inhibitor, partial curve, poor fit]
Cc1cc(N/N=C/c2ccc(O)c(C)c2O)nc(-c2ccccc2O)n1 7.08 µM [inhibitor, partial curve, poor fit]
CC(C)C(C)(C#N)NC(=O)CSc1nc2scc(-c3ccccc3)c2c(=O)[nH]1 (configuration not stated) 17.8 µM [inhibitor, single point]
COc1ccc(NC(=O)C#Cc2ccccc2)cc1OC 28.2 µM [inhibitor, single point]
Cc1cccc(Oc2ccc(C(=O)NC3CCSC3=O)cn2)c1C (configuration not stated) 3.98 µM [inhibitor, partial curve, poor fit]
CNC(=S)N/N=C/c1cn(CCOc2cccc(OC)c2)c2ccccc12 3.98 µM [inhibitor, partial curve, poor fit]
CC(C)(C)c1ccc(-n2ncc3c2CCCC3NC(=O)C2(C(N)=O)CC2)cc1 (configuration not stated) 1 µM [inhibitor, full curve, poor fit]
O=C(NCc1cccnc1)C1CC(c2ccccc2O)=NO1 (configuration not stated) 10 µM [inhibitor, single point]
CCC(C)c1ccc(NC(=S)Nc2ccc(OC)cc2)cc1 (configuration not stated) 7.94 µM [inhibitor, partial curve, poor fit]
CC(C)Cc1nnc(NC(=O)CCC(=O)N2CCN(c3ccc([N+](=O)[O-])cc3)CC2)s1 12.6 µM [inhibitor, partial curve, poor fit]
CCOCCCN(Cc1ccco1)C(=O)c1cc2c(=O)[nH]c3ccc(C)cc3c2s1 31.6 µM [inhibitor, single point] and 14.1 µM [inhibitor, single point]
CC(C)(C)Cc1c(-c2ccc(Cl)cc2)nc2ccc(Cl)cn12 1.41 µM [inhibitor, full curve, poor fit]
Cc1ccc2nc(NC(=O)C3CCN(S(=O)(=O)c4cccnc4)CC3)sc2c1 11.2 µM [inhibitor, partial curve, poor fit]
CC1CCc2cc(F)ccc2N1C(=O)CSc1nnc2c(n1)[nH]c1ccccc12 (configuration not stated) 11.2 µM [inhibitor, single point]
COc1ccc(/C=C(\C#N)c2nc3ccccc3n2C)c(OC)c1 11.2 µM [inhibitor, single point]
Cc1ccc(Nc2nnc(SCC3CCCCO3)s2)cc1 (configuration not stated) 28.2 µM [inhibitor, single point]
CCc1ccc(C2=CSC3=NCCN23)cc1 8.91 µM [inhibitor, partial curve, poor fit]
COc1ccccc1N(Cc1ccccc1)S(=O)(=O)c1cccc(C(=O)Nc2cccc(C)n2)c1 5.62 µM [inhibitor, partial curve, poor fit]
C=CCOc1ccc(CN(C)C(=O)c2ccc(CNS(=O)(=O)c3ccc(C)c(C)c3)cc2)cc1 28.2 µM [inhibitor, single point]
CN(C)S(=O)(=O)N1CCCC(C(=O)c2ccc(-c3ccccc3)c(F)c2)C1 (configuration not stated) 28.2 µM [inhibitor, single point]
CC(C)NC(=O)CSc1nc2ccccc2n1CC(=O)N(C(C)C)C(C)C 28.2 µM [inhibitor, single point]
COc1ccccc1CNC(=O)c1cc2c(s1)-c1ccccc1OC2 11.2 µM [inhibitor, single point]
CCC(=O)N1c2ccc(S(=O)(=O)CCC(=O)Nc3ccc(Br)c(C)c3)cc2CC1C (configuration not stated) 6.31 µM [inhibitor, partial curve, poor fit]
Cc1cc(O)c(NC(=O)c2cc([N+](=O)[O-])ccc2Cl)cc1C 14.1 µM [inhibitor, single point]
S=C(Nc1ccc(Cl)cc1)Nc1ccc2c(c1)OCCO2 28.2 µM [inhibitor, single point]
O=C(CN1CCN(c2ccccc2O)CC1)Nc1ccc2c(c1)CCC2 11.2 µM [inhibitor, partial curve, poor fit]
COc1ccc(CCN2C(=O)c3[nH]nc(-c4ccccc4O)c3C2c2ccccc2)cc1OC (configuration not stated) 10 µM [inhibitor, partial curve]
CNc1ccc(C=C2C=Cc3ccccc32)cc1 12.6 µM [inhibitor, single point]
CCCCN(C)CCCNC(=O)Cn1ncc2c3ccccc3n(Cc3cc(C)ccc3C)c2c1=O 11.2 µM [inhibitor, partial curve, poor fit]
OC(COC(c1ccccc1)c1ccccc1)CN1CCCCC1 (configuration not stated) 12.6 µM [inhibitor, single point]
CCN(CC)CCCNC(=O)c1nn(-c2ccc(C)cc2)c(=O)c2c1c1ccccc1n2C 10 µM [inhibitor, partial curve, poor fit]
Cc1ccc(C(=O)N2CC(=O)Nc3ccc(F)cc3C2c2ccc(F)cc2)cc1 (configuration not stated) 15.8 µM [inhibitor, single point]
CCOC(=O)N1CCN(C(=O)c2oc3ccc(S(=O)(=O)N4CC(C)CC(C)C4)cc3c2C)CC1 (configuration not stated) 11.2 µM [inhibitor, partial curve, poor fit]
CCN(Cc1ccccc1)C(=O)c1sc2nc3n(c(=O)c2c1C)CCCC3 22.4 µM [inhibitor, single point]
O=C(/C=C/c1ccccc1)NCCc1c[nH]c2ccccc12 11.2 µM [inhibitor, single point]
Cc1ccc(C2CCN(C(=O)Nc3ccc(F)cc3)C2)cc1 (configuration not stated) 28.2 µM [inhibitor, single point]
O=C(NCc1ccccc1)/C(=C/c1ccc(OC(F)F)cc1)c1ccccc1 28.2 µM [inhibitor, single point]
CCN(CC)S(=O)(=O)c1ccc2oc(SCC(=O)Nc3cc(C)on3)nc2c1 2.82 µM [inhibitor, full curve, poor fit]
CCOc1ccc(C(=O)OC(C)C(=O)N2CCN(Cc3ccccc3)CC2)cc1 (configuration not stated) 8.91 µM [inhibitor, partial curve, poor fit]
O=C(NCCc1nc(-c2ccccc2)cs1)c1ccc(Br)cc1 28.2 µM [inhibitor, single point]
COc1cccc(CNc2ccc(C)c(Cl)c2)c1 12.6 µM [inhibitor, single point]
CC(OCCN(C)C)C(=O)C12CC3CC(CC(C3)C1)C2 (configuration not stated) 11.2 µM [inhibitor, partial curve, poor fit]
Cc1ccc(O)c(C(=O)c2cnc3c(c2)COc2ccccc2-3)c1 22.4 µM [inhibitor, single point]
CSc1ccccc1OCc1cc(C(=O)N(C)CCn2nc(C)cc2C)no1 8.91 µM [inhibitor, partial curve]

Source: PubChem BioAssay AID624417 (National Center for Advancing Translational Sciences (NCATS), 2012)
